Experimental data: PubChem BioAssay AID485313 (National Center for Advancing Translational Sciences (NCATS), 2010)
Out of some 320,000 compounds screened, about 7,600 (2.4%) were called active. Inconclusive means that the source gave no clear call. Such entries were picked first, then a sample of the others. Calls follow the shape of the dose curve; as a rule, active = well fitted activation curve with a large enough effect; inconclusive = small, poorly fitted or top-dose-only effect; inactive = no such curve, though single readings can be large or run the other way. Potencies beside an inconclusive call are fits to weak or partial responses and may not hold up.

Test: qHTS Assay for NPC1 Promoter Activators; also: nearly all actives have a fitted effect of over 60% in size;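 as to activation: reporter is driven by a mutant NPC1 promoter; % of control where 0% means no effect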
Conditions: Huh7 NPC1 promoter luciferase reporter, 24 h; series mostly up to 9.22 µM; activation: at the top concentration
How it was run: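 Huh7 reporter cells (NPC1 promoter driving luciferase) are dosed with compound for 24 h at 37 °C, 5% CO2; luciferase detection reagent is then added and luminescence measured after 10 min at ambient temperature.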
Potency is read from the fitted curve at half-maximal effect; tags tell the direction and shape of the fitted curve.

Potency, active:
COC(=O)c1ccc2nc(NC(=O)C3CC3)sc2c1 2240 nM
c1ccc(CN2CCN(c3nc4ccccc4s3)CC2)cc1 1410 nM
COc1ccc(NC(=O)c2noc3c2CCCCC3)cc1 1410 nM
Cc1ccc2nc(-c3ccc(NC(=O)CN4C(=O)NC(C)(c5ccc(OC(F)F)cc5)C4=O)cc3)sc2c1 (stereo unspecified) 2510 nM
Cc1ccc(CNc2ccc(N3CCOCC3)cc2)cc1 3980 nM
O=C(NCCc1ccc(F)cc1)c1cccs1 2820 nM
COc1ccc(-c2csc(-n3cccn3)n2)cc1 2510 nM
Cc1c(C(=O)Nc2ccccn2)sc2nc3n(c(=O)c12)CCC3 1260 nM
Cc1cc(NC(=O)Nc2ccc3c(ccn3C)c2)sn1 7310 nM
COc1ccc2cc3cc(C(=O)N4CCCCCC4)oc3nc2c1 891 nM

Potency, inconclusive:
CCOC(=O)c1ccc(NS(=O)(=O)c2ccc(-c3coc(C)n3)cc2)cc1 1260 nM [activator, single point]
Cc1ccc(-c2nc3ccccn3c2NCc2ccc3c(c2)OCO3)cc1 3980 nM [activator, partial curve]
O=C(N/N=C/c1cn(-c2ccccc2)nc1-c1ccc2c(c1)OCCO2)c1ccncc1 3980 nM [activator, single point]
COCCn1c(COc2ccc(C)cc2)nc2ccccc21 3160 nM [activator, single point]
O=C(CCNc1ccc(F)cc1)c1cccc([N+](=O)[O-])c1 5620 nM [activator, single point]
c1ccc2[nH]c(SCc3cscn3)nc2c1 3980 nM [activator, partial curve]
O=C(Nc1nc2ccccc2[nH]1)c1ccc(F)c(S(=O)(=O)N2CCOCC2)c1 3550 nM [activator, partial curve]

activation, inactive:
Cc1ccc(NC(=O)CCN2C(=O)OC(C)(C)C2(C)O)cc1 (stereo unspecified) -2.43%
Cc1cc(C)c2cccc(NC(=S)NC(=O)c3ccccc3)c2n1 16.2%
O=C(CC1CCCCC1)Nc1ccc(-c2ccc3nncn3n2)cc1 -2.07%
Cc1ccc(CC(=O)Nc2ccc(C(=O)N3CCCCC3)cc2)cc1 7.06%
FC(F)(F)Oc1ccc(NC(=S)NCCCN2CCOCC2)cc1 1.19%
C=CCn1c(SCCN2CCCC2)nc2c([nH]c3ccccc32)c1=O 1.1%
CC(OC(=O)c1ccco1)C(=O)NC1CCCC1 (stereo unspecified) -0.688%
CC(C)c1ccc(NC(=O)C2CC2c2ccccc2)cc1 (stereo unspecified) -3.95%
CCOc1cc(NC(=O)Nc2ccccc2)c(OCC)cc1NC(=O)CC -0.529%
